Assay results: US20160122793

Target: T1, RL27_EVLFQGP_GLP-1(7-37,K34R)
T1 chain: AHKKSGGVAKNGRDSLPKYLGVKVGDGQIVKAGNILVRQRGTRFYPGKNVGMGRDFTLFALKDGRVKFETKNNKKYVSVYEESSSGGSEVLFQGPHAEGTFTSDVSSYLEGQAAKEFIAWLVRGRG

B1: Protease 20986, His-des182HRV14-XaaProDAP (Q241E, G242T) (protein)
chain: MHHHHHHGGSSGSGSGSGSGS[no letters for about 200 residues]GSGGSGGSGSMRFNHFSIVDKNFDEQLAELDQLGFRWSVFWDEKKILKDFLIQSPTDMTVLQANTELDVIEFLKSSIELDWEIFWNITLQLLDFVPNFDFEIGKATEFAKKLNLPQRDVEMTTETIISAFYYLLCSRRKSGMILVEHWVSEGLLPLDNHYHFFNDKSLATFDSSLLEREVVWVESPVDTEQKGKNDLIKIQIIRPKSTEKLPVVITASPYHLGINEKANDLALHEMNVDLEKKDSHKIHVETKLPQKRPSETKELPIVDKAPYRFTHGWTYSLNDYFLTRGFASIYVAGVGTRGSNGFQTSGDYQQIYSMTAVIDWLNGRTRAYTSRKKTHEIKATWANGKVAMTGKSYLGTMAYGAATTGVDGLEVILAEAGISSWYNYYRENGLVRSPGGFPGEDLDVLAALTYSRNLDGADYLKGNDEYEKRLAEMTTALDRKSGDYNQFWHDRNYLINSDQVRADVLIVHGLQDWNVTPEQAYNFWQALPEGHAKHAFLHRGAHIYMNSWQSIDFSETINAYFSAKLLDRDLNLNLPPVILQENSKEQVWSAVSKFGGDDQLKLPLGKTAVSFAQFDNHYDDESFKKYSKDFNVFKKDLFENKANEAVIDLELPSELTINGPIELEIRLKLNDSKGLLSAQILDFGPKKRLEDKARVKDFKVLDRGRNFMLDDLVELPLVESPYQLVTKGFTNLQNKDLLTVSDLKADEWFTLKFELQPTIYHLEKADKLRVILYSTDFEHTVRDNRKVTYEIDLSQSKLIIPIESVKKGSS
cleavage of fusion protein substrate, LC-MS: all able to fully process the RL27_EVLFQGP_GLP-1 in to mature GLP-1(7-37,K34R)
cleavage of fusion protein substrate, LC-MS, 1:500, 4 C overnight: optimal cleavage conditions using 1:500 enzyme to substrate ratio with overnight incubation at 4° C., without detectable contributions of fragments derived from unspecific or incomplete processing
